± gives the standard deviation. In all, about 5,500 sequences were measured (“pre-steady-state target cleavage rate”: median about 0.1, highest 2% from about 0.64 on). This is a selection; strong and weak results do not stand in their true shares.
The sequences below were run on MIWI (PIWIL1) piRISC loaded with piRNA #2 (30 nt) (assay: pre-steady-state target cleavage rate (min^-1); MIWI and MILI are mouse PIWI proteins and EfPiwi is from a freshwater sponge; tags in brackets are library labels; higher = faster piRNA-guided slicing of the target). Conditions: guide: piRNA #2 5'p-UUAGGUAACCCAGUAGAUCCAGAGGAAUUC; auxiliary factor: 500 nM mouse GTSF1.
In short: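 The pre-steady-state cleavage rate was derived from a burst-and-steady-state fit of Cleave-'n-Seq data. For these assays, 1 nM active affinity-purified piRISC loaded with a single synthetic guide was mixed with […] a transcribed, DNA-blocked target RNA library in HEPES–potassium acetate buffer at 33 °C, with or without 500 nM GTSF1 partner protein, for 0–8 or 0–960 min. Sequencing counts of uncleaved targets were normalised to depth and to weakly complementary targets, and k3 was capped at 0.0001 min^-1 after three trials were pooled.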

| Sequence | pre-steady-state target cleavage rate |
| --- | --- |
| CUUAAGGUCUGGAUCUACAGGGUUACCAAA | 0.132 ± 0.017 |
| CAAUUCCUCUGGAUCUACUGGGAAUCCUAA | 0.211 ± 0.069 |
| CUUAAGGACUGGAUCUACUGGGUUACCUGA | 0.0361 ± 0.02 |
| CUUAAGGUCCGGAUCUACUGGGUUACCUAA | 0.12 ± 0.032 |
| GAAUUCCUCUGGUUCUACUGGGUUACCAAA | 0.427 ± 0.085 |
| CUUAAGGUCUGGAUCUACUGGCUUACCUAA | 0.0659 ± 0.016 |
| GAAUUCCUCAGCAUCUACUGGGUUACCUAA | 0.472 ± 0.034 |
| CUUAAGGUGUGGAUCUACUGGGUUACGUAA | 0.321 ± 0.056 |
| CUUAACCUCUGGAUCUACUGUGUUACCUAA | 0.597 ± 0.045 |
| CUUUUCCUCUGGAUCUACUGGGUUACCUGAA | 0.269 ± 0.075 |
| CUUUUCCUCGUGGAUCUACUGGGUUACCUAA | 0.148 ± 0.027 |
| GAAUUGCUCUGGAUCUACUGCGUUACCUAA | 0.21 ± 0.044 |
| CUUAAGGUCUGGAUCUACUGCGUUAGCUAA | 0.0776 ± 0.033 |
| CUUAAGGUCUGCAUCUACUGGGAUACCUAA | 0.0624 ± 0.019 |
| CUUAAGCUCUCGAUCUACUCGGUUACCUAA | 0.0891 ± 0.008 |
| CUUAAGGCCUGGAUCUACUGGGUUACCUAA | 0.172 ± 0.013 |
| CAAUUCCUCUGGAUCAACUGCGUUACCUAA | 0.563 ± 0.076 |
| CAAUUCCUCUGGAUGUACUGGGUUACGUAA | 0.588 ± 0.047 |
| CUUAUCCUGUGGAUCAACUGGGUUACCUAA | 0.291 ± 0.036 |
| CUAUUCCUCUGGUUCUACUCGGUUACCUAA | 0.125 ± 0.011 |
| CUUAAGCUCUGGAUCUACUGGGUUACCGAA | 0.0806 ± 0.021 |
| CAAUUCCUCUGGUUGUACUGGGUUACCUAA | 0.556 ± 0.048 |
| GAAUUCCUCUGGAUCAUCUGGGUUACCUAA | 0.25 ± 0.032 |
| CUUAAGGAGUGGAUCUUCUGGGUUACGUAA | 0.0237 ± 0.012 |
| CUUAAGGACUGGAUCUACUGGGUUACCUGAA | 0.0284 ± 0.019 |

| Sequence | pre-steady-state target cleavage rate |
| --- | --- |
| CUAUUCCUCUGGAUCUAGUGGGUAACCUAA | 0.0443 ± 0.012 |
| CAAUUGCUCUGGAUCUACAGGGUUACCUAA | 0.124 ± 0.013 |
| CUUUUCCUCUGGAUCAAGUGGGUUACCUAA | 0.00851 ± 0.0027 |
| CUAUUCCUCUGGAUGUAGUGGGUUACCUAA | 0.0853 ± 0.015 |
| CUUUUCGUCUGGAUCUACUGGGUUUCCUAA | 0.301 ± 0.035 |
| CUAAUCCUCUGCAUCUACUGGGUUACCUAA | 0.436 ± 0.032 |
| CUUAUCCUCUGGUUCUACUCGGUUACCUAA | 0.134 ± 0.012 |
| CUUAAGGUUUGGAUCUACUGGGUUACCUAA | 0.362 ± 0.045 |
| GAAUUCCUCGGGAUCUACUGGGUUACCUAA | 0.206 ± 0.055 |
| GAAUUCCUCUCGAUCUACAGGGUUACCUAA | 0.408 ± 0.03 |
| CUUAAGGUCUCGUUCUACUGGGUUACCUAA | 0.017 ± 0.006 |
| CUUAAGGAGUGGAUGUACUGGGUUACCUAA | 0.0723 ± 0.027 |
| CUUAAGGAGAGGAUUUACUGGGUUACCUAA | 0.00456 ± 0.003 |
| CUAUUCCUCUGGAUGUACUGGGUUACCAAA | 0.413 ± 0.042 |
| CUAUUGCUCUGGAUCUUCUGGGUUACCUAA | 0.0988 ± 0.023 |
| CUUAAGGAGUGGAUCUACUGGGUUACCCUAA | 0.043 ± 0.016 |
| CUAUUCCUCUGGAUCUUCUGGGUUACCUAA | 0.412 ± 0.054 |
| CUUAACCUCUGGAUCUACUGGGUUACCGAA | 0.136 ± 0.028 |
| CUUAACCUCUGGAUCUACGGGGUUACCUAA | 0.0478 ± 0.0075 |
| CUUUUCCUCUGGAUCUUCUGGGUUUCCUAA | 0.166 ± 0.038 |
| GAAUUCCUCUGGAUCUACAGGGUUUCCUAA | 0.157 ± 0.025 |
| CUUUUCCUCUGGAUCUACCGGGUUACCUAA | 0.143 ± 0.013 |
| CUAUUCCUCUGGAUCUACUGGGUUAGCCUAA | 0.51 ± 0.063 |
| CAAUUCCUCAUGGAUCUACUGGGUUACCUAA | 0.537 ± 0.059 |
| CAAUUCCUCUGGAUCUACUGCGUUUCCUAA | 0.136 ± 0.034 |

| Sequence | pre-steady-state target cleavage rate |
| --- | --- |
| CUUAAGGAGAGCAUCUACUGGGUUACCUAA | 0.00512 ± 0.0034 |
| CUUUUCCUCUGCUUCUACUGGGUUACCUAA | 0.432 ± 0.039 |
| CUAUUCCUUGGAUCUACUGGGUUACCUAA | 0.48 ± 0.034 |
| CUAUUCCUCUGGAUCUACUGGGUUACCUAG [g2:g28:cont:t1G] | 0.441 ± 0.056 |
| CUUAACCUCUGCAUCUACUGGGUUACGUAA | 0.168 ± 0.02 |
| CUUAACGUCUGGAUCUACUGGGUUAGCUAA | 0.15 ± 0.018 |
| CUUAUCCUCUGCAUCUACUGGGUUAGCUAA | 0.224 ± 0.028 |
| CUUUUCCUCUGGUUCUACUGGGUUACGUAA | 0.504 ± 0.053 |
| CAAUUCCUCUGGAUCUACUGGGCUUACCUAA | 0.0762 ± 0.024 |
| CUUAAGGUGUGGUUCUACUGGGUUACCUAA | 0.0635 ± 0.011 |
| CUUAAGCUCGGGAUCUACUGGGUUACCUAA | 0.0941 ± 0.038 |
| CUUUUCCUCUGGAUCUUACUGGGUUACCUAA | 0.00337 ± 0.0032 |
| CAAUUCCUCUCGAUCUACUGGGUUACGUAA | 0.885 ± 0.061 |
| CUUAUCCUCUGGAUGUACUGCGUUACCUAA | 0.419 ± 0.083 |
| CUAUUCCUGUGGAUCUACAGGGUUACCUAA | 0.294 ± 0.024 |
| CUUAAGGAGACCUAGUUCUGGCUUACCUAA | < 0.0001 |
| CUUAACCUCUGGAUCUACUGGGUUACCUGAA | 0.0816 ± 0.025 |
| CUUAAGCUCUGGAUCCACUGGGUUACCUAA | 0.0429 ± 0.0074 |
| GAAUUCCUCUGGAUCUACUGGGUUACCCAA | 0.341 ± 0.12 |
| CUUUUCCUCUGGAUCUUCUGGGUAACCUAA | 0.0537 ± 0.011 |
| CUUAACCUCUGGAUCUACUGGGUUAGGUAA | 0.0297 ± 0.007 |
| CAAUUCCUCUGGAUCUACUGGGUUACCUCA | 0.329 ± 0.048 |
| GAAUUCCUCUCGAUCUACUGGCUUACCUAA | 0.113 ± 0.017 |
| CAAAUCCUCUGGAUCUACUGCGUUACCUAA | 0.563 ± 0.067 |
